Experimental data reported in patent US20210032352A1 (ANTERA THERAPEUTICS, published 2021).

T1: FZD4 CRD, Fc-tagged (human, UniProt Q9ULV1 37-180)
T1 construct: domain: CRD; Bought; also called FZD4 ECD; not shown: Fc tag of the purchased fusion
T1 sequence (looked up): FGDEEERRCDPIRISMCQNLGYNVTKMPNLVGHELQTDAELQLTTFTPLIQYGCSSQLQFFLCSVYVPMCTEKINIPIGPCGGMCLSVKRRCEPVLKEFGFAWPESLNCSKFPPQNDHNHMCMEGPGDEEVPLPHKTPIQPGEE

T2: FZD5 CRD, Fc-tagged (human, UniProt Q13467 27-167)
T2 construct: domain: CRD; Bought; also called FZD5 ECD; not shown: Fc tag of the purchased fusion
T2 sequence (looked up): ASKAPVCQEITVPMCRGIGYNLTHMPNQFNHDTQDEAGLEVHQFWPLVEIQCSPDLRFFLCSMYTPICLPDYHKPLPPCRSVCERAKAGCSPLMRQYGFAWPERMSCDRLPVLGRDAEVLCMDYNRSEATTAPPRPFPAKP


How the values were obtained:
[1] = biological target: LRP6 on HEK293/HEK293T reporter cells (UniProt O75581 20-1613, limits assumed); assay: cell-based or functional assay
FZD7 CRD, Fc-tagged = FZD7 CRD, Fc-tagged (human, UniProt O75084 in part); assay: BLI (Octet): FZD-Fc captured on the sensor, 100 nM binder, 300 s association, 300 s dissociation
FZD4 CRD, Fc-tagged = biological target: T1, FZD4 CRD, Fc-tagged; assay: as above
FZD5 CRD, Fc-tagged = biological target: T2, FZD5 CRD, Fc-tagged; assay: as above

UniProt O75581, sequence (O75581 20-1613 limits assumed): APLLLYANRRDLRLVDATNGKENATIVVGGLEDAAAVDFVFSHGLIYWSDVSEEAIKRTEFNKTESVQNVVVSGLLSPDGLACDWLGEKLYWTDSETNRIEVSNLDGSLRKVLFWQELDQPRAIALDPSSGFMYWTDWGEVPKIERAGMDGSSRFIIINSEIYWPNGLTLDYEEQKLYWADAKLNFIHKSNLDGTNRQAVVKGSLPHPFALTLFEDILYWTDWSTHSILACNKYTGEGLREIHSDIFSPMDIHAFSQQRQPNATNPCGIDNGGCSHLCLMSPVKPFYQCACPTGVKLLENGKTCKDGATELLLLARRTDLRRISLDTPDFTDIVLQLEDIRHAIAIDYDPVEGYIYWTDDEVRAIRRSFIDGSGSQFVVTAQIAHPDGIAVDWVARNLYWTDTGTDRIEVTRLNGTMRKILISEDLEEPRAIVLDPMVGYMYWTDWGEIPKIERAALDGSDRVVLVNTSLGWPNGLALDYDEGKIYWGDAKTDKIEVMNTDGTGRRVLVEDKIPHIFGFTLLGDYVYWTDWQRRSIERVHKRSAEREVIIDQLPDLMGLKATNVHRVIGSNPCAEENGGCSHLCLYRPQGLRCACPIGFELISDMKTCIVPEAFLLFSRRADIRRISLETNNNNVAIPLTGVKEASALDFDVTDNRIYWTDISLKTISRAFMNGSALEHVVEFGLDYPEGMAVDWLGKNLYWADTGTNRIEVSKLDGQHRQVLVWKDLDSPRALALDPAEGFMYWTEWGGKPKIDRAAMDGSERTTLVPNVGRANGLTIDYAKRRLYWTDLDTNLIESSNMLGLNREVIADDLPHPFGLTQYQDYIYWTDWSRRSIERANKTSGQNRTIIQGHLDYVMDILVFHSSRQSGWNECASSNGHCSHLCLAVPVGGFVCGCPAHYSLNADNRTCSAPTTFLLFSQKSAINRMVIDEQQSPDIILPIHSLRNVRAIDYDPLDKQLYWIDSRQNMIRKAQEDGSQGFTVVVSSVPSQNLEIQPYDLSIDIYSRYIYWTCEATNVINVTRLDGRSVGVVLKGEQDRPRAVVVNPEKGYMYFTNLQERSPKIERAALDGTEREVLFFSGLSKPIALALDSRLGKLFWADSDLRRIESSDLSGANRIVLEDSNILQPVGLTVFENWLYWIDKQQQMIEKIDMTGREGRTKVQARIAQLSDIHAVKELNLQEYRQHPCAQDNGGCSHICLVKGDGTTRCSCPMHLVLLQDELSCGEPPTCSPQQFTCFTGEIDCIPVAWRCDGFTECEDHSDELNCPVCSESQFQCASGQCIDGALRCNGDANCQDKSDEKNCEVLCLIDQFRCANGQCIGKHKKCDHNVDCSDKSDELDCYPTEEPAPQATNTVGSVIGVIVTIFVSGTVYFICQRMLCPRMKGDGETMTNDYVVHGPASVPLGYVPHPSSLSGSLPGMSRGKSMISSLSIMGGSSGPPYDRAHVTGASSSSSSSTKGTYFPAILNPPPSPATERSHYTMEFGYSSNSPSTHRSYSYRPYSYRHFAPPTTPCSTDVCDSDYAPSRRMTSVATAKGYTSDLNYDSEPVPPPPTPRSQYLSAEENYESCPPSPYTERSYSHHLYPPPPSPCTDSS

pBAR luciferase reporter, activation over background [1] | binding result (FZD7 CRD, Fc-tagged) | binding result (FZD4 CRD, Fc-tagged) | binding result (FZD5 CRD, Fc-tagged) | Binder
~20 fold over background | binds | – | – | 5019-Fc-2542 (bispecific antibody, Homodimer on wild-type human IgG1 Fc; also called F^P+P-L6^1+1) EVQLVESGGGLVQPGGSLRLSCAASGFNIGSSSIHWVRQAPGKGLEWVASIYSAFASTSYADSVKGRFTISADTSKNTAYLQMNSLRAEDTAVYYCARYHFPFGFALDYWGQGTLVTVSSGGGGSDIQMTQSPSSLSASVGDRVTITCRASQSVSSAVAWYQQKPGKAPKLLIYSASSLYSGVPSRFSGSRSGTDFTLTISSLQPEDFATYYCQQGVYLFTFGQGTKVEIKLEDKTHTKV[human IgG1 Fc with C220S (EU numbers) not printed]SGSETPGTSESATPESGGGEVQLVESGGGLVQPGGSLRLSCAASGFNISSYYIHWVRQAPGKGLEWVASIYSSYGYTSYADSVKGRFTISADTSKNTAYLQMNSLRAEDTAVYYCARTVRGSKKPYFSGWAMDYWGQGTLVTVSSGGGGSDIQMTQSPSSLSASVGDRVTITCRASQSVSSAVAWYQQKPGKAPKLLIYSASSLYSGVPSRFSGSRSGTDFTLTISSLQPEDFATYYCQQYYWPITFGQGTKVEIK
~200 fold over background | binds | binds | binds | 5019-Fc-2539 (bispecific antibody, human IgG1, Homodimer on wild-type human IgG1 Fc; also called F^P+P-L6^3+3) EVQLVESGGGLVQPGGSLRLSCAASGFNIGSSSIHWVRQAPGKGLEWVASIYSAFASTSYADSVKGRFTISADTSKNTAYLQMNSLRAEDTAVYYCARYHFPFGFALDYWGQGTLVTVSSGGGGSDIQMTQSPSSLSASVGDRVTITCRASQSVSSAVAWYQQKPGKAPKLLIYSASSLYSGVPSRFSGSRSGTDFTLTISSLQPEDFATYYCQQGVYLFTFGQGTKVEIKLEDKTHTKV[human IgG1 Fc with C220S (EU numbers) not printed]SGSETPGTSESATPESGGGEVQLVESGGGLVQPGGSLRLSCAASGFNISYSSIHWVRQAPGKGLEWVAYISSYYGYTYYADSVKGRFTISADTSKNTAYLQMNSLRAEDTAVYYCARAHYFPWAGAMDYWGQGTLVTVSSGGGGSDIQMTQSPSSLSASVGDRVTITCRASQSVSSAVAWYQQKPGKAPKLLIYSASSLYSGVPSRFSGSRSGTDFTLTISSLQPEDFATYYCQQYSWGPFTFGQGTKVEIK
